Assay results from article PMC10460860.
Results are given in words; binding and its absence hold for the method and conditions named. In cells and extracts the contact can be indirect. Some binding calls cover weakened binding; strength is not graded here. For part of these data: Where a sequence is shown, tags or fusion partners need not be part of it.

By UniProt entry, the sequences of proteins in these tests, tags left out.
UniProt P34152: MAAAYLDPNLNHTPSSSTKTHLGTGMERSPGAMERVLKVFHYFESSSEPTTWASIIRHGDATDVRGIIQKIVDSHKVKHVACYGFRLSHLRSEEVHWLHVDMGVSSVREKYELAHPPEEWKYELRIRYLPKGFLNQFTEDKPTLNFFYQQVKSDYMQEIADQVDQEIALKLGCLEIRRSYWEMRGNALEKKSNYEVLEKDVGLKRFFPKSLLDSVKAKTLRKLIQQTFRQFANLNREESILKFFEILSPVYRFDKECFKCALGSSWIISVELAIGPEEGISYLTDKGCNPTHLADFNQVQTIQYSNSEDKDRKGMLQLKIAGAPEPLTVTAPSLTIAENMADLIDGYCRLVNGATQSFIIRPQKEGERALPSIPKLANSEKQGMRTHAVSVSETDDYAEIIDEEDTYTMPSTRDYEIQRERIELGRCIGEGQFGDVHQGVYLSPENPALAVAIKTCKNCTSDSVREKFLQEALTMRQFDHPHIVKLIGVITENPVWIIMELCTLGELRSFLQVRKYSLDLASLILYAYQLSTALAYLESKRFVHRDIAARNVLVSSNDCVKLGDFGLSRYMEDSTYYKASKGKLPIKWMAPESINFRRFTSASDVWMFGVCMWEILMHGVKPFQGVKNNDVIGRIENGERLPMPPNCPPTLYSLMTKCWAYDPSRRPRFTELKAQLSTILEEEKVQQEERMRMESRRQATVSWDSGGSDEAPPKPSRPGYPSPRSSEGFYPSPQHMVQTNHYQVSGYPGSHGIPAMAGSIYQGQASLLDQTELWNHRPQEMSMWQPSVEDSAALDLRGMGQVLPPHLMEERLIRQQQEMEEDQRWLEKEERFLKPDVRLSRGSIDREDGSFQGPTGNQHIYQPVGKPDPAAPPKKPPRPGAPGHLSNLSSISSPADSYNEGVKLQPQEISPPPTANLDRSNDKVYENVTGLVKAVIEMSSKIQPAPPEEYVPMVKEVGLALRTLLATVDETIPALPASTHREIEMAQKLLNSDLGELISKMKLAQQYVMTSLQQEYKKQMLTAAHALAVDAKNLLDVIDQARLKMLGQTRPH

T1: green fluorescent protein (GFP)-tagged FBLN7 (fibulin 7), full length, mouse (mouse) (UniProt Q501P1)
T1 sequence: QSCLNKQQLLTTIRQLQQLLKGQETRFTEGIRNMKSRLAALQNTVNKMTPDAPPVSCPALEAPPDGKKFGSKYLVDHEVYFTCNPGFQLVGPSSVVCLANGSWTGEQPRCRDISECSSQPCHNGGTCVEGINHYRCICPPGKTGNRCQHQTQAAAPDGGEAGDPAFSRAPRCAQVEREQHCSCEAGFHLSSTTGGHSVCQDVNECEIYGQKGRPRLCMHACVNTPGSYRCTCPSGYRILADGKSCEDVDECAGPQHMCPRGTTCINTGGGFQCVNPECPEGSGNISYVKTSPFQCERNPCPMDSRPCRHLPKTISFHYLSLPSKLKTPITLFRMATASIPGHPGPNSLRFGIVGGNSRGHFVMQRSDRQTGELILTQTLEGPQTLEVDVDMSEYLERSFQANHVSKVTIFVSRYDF

T2: endogenous FBLN7 (fibulin 7) of cardiac fibroblasts (mouse (endogenous in neonatal mouse cardiac fibroblasts)) (UniProt Q501P1)
T2 sequence: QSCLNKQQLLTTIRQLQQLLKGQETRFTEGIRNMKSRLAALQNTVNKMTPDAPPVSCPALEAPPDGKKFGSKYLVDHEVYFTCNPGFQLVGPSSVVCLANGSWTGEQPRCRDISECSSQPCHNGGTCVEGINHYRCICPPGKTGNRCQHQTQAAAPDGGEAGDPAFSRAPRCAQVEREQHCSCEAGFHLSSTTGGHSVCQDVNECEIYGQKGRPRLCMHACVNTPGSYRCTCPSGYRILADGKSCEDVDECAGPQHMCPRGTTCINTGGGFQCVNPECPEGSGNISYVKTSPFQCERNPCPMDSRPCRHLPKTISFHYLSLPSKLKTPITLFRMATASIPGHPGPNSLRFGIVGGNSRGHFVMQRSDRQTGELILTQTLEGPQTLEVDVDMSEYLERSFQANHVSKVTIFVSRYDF


How the values were obtained:
[1] = target: T1, green fluorescent protein (GFP)-tagged FBLN7 (fibulin 7), full length, mouse (mouse); assay: co-IP; His-EGFR and GFP-FBLN7 co-expressed in 293T cells; non-denaturing lysis buffer; IP antibody then protein A/G magnetic beads at 4°C overnight; IP with GFP-FBLN7 and blot for His-EGFR, and the reverse
[2] = target: T2, endogenous FBLN7 (fibulin 7) of cardiac fibroblasts (mouse (endogenous in neonatal mouse cardiac fibroblasts)); assay: co-IP; endogenous FBLN7 and FAK in lysates from cardiac fibroblasts stimulated with hTGF-β1 (Figure S5)
[3] = target: His-tagged EGFR (epidermal growth factor receptor), full length, mouse (mouse) (UniProt Q01279); assay: co-IP; His-EGFR with Myc-FBLN7 full length or deletion mutants in 293T cells; Western blotting of the immunoprecipitated fraction of the full-length His-EGFR
[4] = target: His-tagged EGFR (epidermal growth factor receptor), full length, mouse (mouse) (UniProt Q01279); assay: co-IP; His-EGFR and GFP-FBLN7 co-expressed in 293T cells; non-denaturing lysis buffer; IP antibody then protein A/G magnetic beads at 4°C overnight; IP with GFP-FBLN7 and blot for His-EGFR, and the reverse
[5] = target: endogenous EGFR of cardiac fibroblasts (mouse (endogenous in neonatal mouse cardiac fibroblasts)) (UniProt Q01279); assay: co-IP; endogenous proteins in hTGF-β1-treated cardiac fibroblasts; IP with EGFR and blot for FBLN7

Row | binding [3] | Molecule | further results
1 |  | His-tagged EGFR (epidermal growth factor receptor), full length, mouse (from UniProt Q01279 25-1210) | binding [1]: binds
2 |  | focal adhesion kinase (FAK), endogenous in cardiac fibroblasts (from UniProt P34152 1-1052) (enzyme) | binding [2]: no binding
3 | no binding | Myc-tagged FBLN7 mutant lacking the EGF-like calcium-binding domain (domain or fragment, UniProt Q501P1) QSCLNKQQLLTTIRQLQQLLKGQETRFTEGIRNMKSRLAALQNTVNKMTPDAPPVSCPALEAPPDGKKFGSKYLVDHEVYFTCNPGFQLVGPSSVVCLANGSWTGEQPRCRDISECSSQPCHNGGTCVEGINHYRCICPPGKTGNRCQHQTQAAAPDGGEAGDPAFSRAPRCAQVEREQHCSCEAGFHLSSTTGGHSVCRNPCPMDSRPCRHLPKTISFHYLSLPSKLKTPITLFRMATASIPGHPGPNSLRFGIVGGNSRGHFVMQRSDRQTGELILTQTLEGPQTLEVDVDMSEYLERSFQANHVSKVTIFVSRYDF | 
4 | binds | Myc-tagged FBLN7 mutant lacking the sushi domain (domain or fragment, UniProt Q501P1) QSCLNKQQLLTTIRQLQQLLKGQETRFTEGIRNMKSRLAALQNTVNKMQPCHNGGTCVEGINHYRCICPPGKTGNRCQHQTQAAAPDGGEAGDPAFSRAPRCAQVEREQHCSCEAGFHLSSTTGGHSVCQDVNECEIYGQKGRPRLCMHACVNTPGSYRCTCPSGYRILADGKSCEDVDECAGPQHMCPRGTTCINTGGGFQCVNPECPEGSGNISYVKTSPFQCERNPCPMDSRPCRHLPKTISFHYLSLPSKLKTPITLFRMATASIPGHPGPNSLRFGIVGGNSRGHFVMQRSDRQTGELILTQTLEGPQTLEVDVDMSEYLERSFQANHVSKVTIFVSRYDF | 
5 | binds | Myc-tagged FBLN7 mutant lacking the C-terminus (domain or fragment, UniProt Q501P1 25-373) QSCLNKQQLLTTIRQLQQLLKGQETRFTEGIRNMKSRLAALQNTVNKMTPDAPPVSCPALEAPPDGKKFGSKYLVDHEVYFTCNPGFQLVGPSSVVCLANGSWTGEQPRCRDISECSSQPCHNGGTCVEGINHYRCICPPGKTGNRCQHQTQAAAPDGGEAGDPAFSRAPRCAQVEREQHCSCEAGFHLSSTTGGHSVCQDVNECEIYGQKGRPRLCMHACVNTPGSYRCTCPSGYRILADGKSCEDVDECAGPQHMCPRGTTCINTGGGFQCVNPECPEGSGNISYVKTSPFQCERNPCPMDSRPCRHLPKTISFHYLSLPSKLKTPITLFRMATASIPGHPGPNSLR | 
6 |  | green fluorescent protein (GFP)-tagged FBLN7 (fibulin 7), full length, mouse (protein, UniProt Q501P1 25-440) QSCLNKQQLLTTIRQLQQLLKGQETRFTEGIRNMKSRLAALQNTVNKMTPDAPPVSCPALEAPPDGKKFGSKYLVDHEVYFTCNPGFQLVGPSSVVCLANGSWTGEQPRCRDISECSSQPCHNGGTCVEGINHYRCICPPGKTGNRCQHQTQAAAPDGGEAGDPAFSRAPRCAQVEREQHCSCEAGFHLSSTTGGHSVCQDVNECEIYGQKGRPRLCMHACVNTPGSYRCTCPSGYRILADGKSCEDVDECAGPQHMCPRGTTCINTGGGFQCVNPECPEGSGNISYVKTSPFQCERNPCPMDSRPCRHLPKTISFHYLSLPSKLKTPITLFRMATASIPGHPGPNSLRFGIVGGNSRGHFVMQRSDRQTGELILTQTLEGPQTLEVDVDMSEYLERSFQANHVSKVTIFVSRYDF | binding [4]: binds
7 |  | endogenous FBLN7 (fibulin 7) of cardiac fibroblasts (protein, UniProt Q501P1 25-440) QSCLNKQQLLTTIRQLQQLLKGQETRFTEGIRNMKSRLAALQNTVNKMTPDAPPVSCPALEAPPDGKKFGSKYLVDHEVYFTCNPGFQLVGPSSVVCLANGSWTGEQPRCRDISECSSQPCHNGGTCVEGINHYRCICPPGKTGNRCQHQTQAAAPDGGEAGDPAFSRAPRCAQVEREQHCSCEAGFHLSSTTGGHSVCQDVNECEIYGQKGRPRLCMHACVNTPGSYRCTCPSGYRILADGKSCEDVDECAGPQHMCPRGTTCINTGGGFQCVNPECPEGSGNISYVKTSPFQCERNPCPMDSRPCRHLPKTISFHYLSLPSKLKTPITLFRMATASIPGHPGPNSLRFGIVGGNSRGHFVMQRSDRQTGELILTQTLEGPQTLEVDVDMSEYLERSFQANHVSKVTIFVSRYDF | binding [5]: binds
8 | binds | Myc-tagged full-length FBLN7 (protein, UniProt Q501P1 25-440) QSCLNKQQLLTTIRQLQQLLKGQETRFTEGIRNMKSRLAALQNTVNKMTPDAPPVSCPALEAPPDGKKFGSKYLVDHEVYFTCNPGFQLVGPSSVVCLANGSWTGEQPRCRDISECSSQPCHNGGTCVEGINHYRCICPPGKTGNRCQHQTQAAAPDGGEAGDPAFSRAPRCAQVEREQHCSCEAGFHLSSTTGGHSVCQDVNECEIYGQKGRPRLCMHACVNTPGSYRCTCPSGYRILADGKSCEDVDECAGPQHMCPRGTTCINTGGGFQCVNPECPEGSGNISYVKTSPFQCERNPCPMDSRPCRHLPKTISFHYLSLPSKLKTPITLFRMATASIPGHPGPNSLRFGIVGGNSRGHFVMQRSDRQTGELILTQTLEGPQTLEVDVDMSEYLERSFQANHVSKVTIFVSRYDF | 
9 | no binding | Myc-tagged FBLN7 mutant lacking the EGF-like domain (domain or fragment, UniProt Q501P1) QSCLNKQQLLTTIRQLQQLLKGQETRFTEGIRNMKSRLAALQNTVNKMTPDAPPVSCPALEAPPDGKKFGSKYLVDHEVYFTCNPGFQLVGPSSVVCLANGSWTGEQPRCRHQTQAAAPDGGEAGDPAFSRAPRCAQVEREQHCSCEAGFHLSSTTGGHSVCQDVNECEIYGQKGRPRLCMHACVNTPGSYRCTCPSGYRILADGKSCEDVDECAGPQHMCPRGTTCINTGGGFQCVNPECPEGSGNISYVKTSPFQCERNPCPMDSRPCRHLPKTISFHYLSLPSKLKTPITLFRMATASIPGHPGPNSLRFGIVGGNSRGHFVMQRSDRQTGELILTQTLEGPQTLEVDVDMSEYLERSFQANHVSKVTIFVSRYDF | 
